Among all 1,300 compounds or so, about 30 (2%) were called active. About 10% were inconclusive and are not listed. Calls come from the whole dose curve; as a rule, active = well fitted inhibition curve with a large enough effect; inconclusive = small, poorly fitted or top-dose-only effect; inactive = flat fitted curve, though single readings scatter. Some of the results follow.
assay: qHTS for antagonists of the Thyroid Stimulation Hormone Receptor: Hit Validation in HTRF Activity in a Luteinizing Hormone Receptor Cell Line; conditions: LHR-expressing cell line, cAMP HTRF, antagonist mode; series mostly up to 58 µM; activity change, negative = inhibition: at the top concentration
Text: The thyroid-stimulating hormone receptor (TSHR) is a member of the 7 trans-membrane-spanning receptor (7TMR) family of cell surface receptors. TSHR-mediated hyperthyroidism is important in thyroid pathology. The development of small molecule antagonists of TSHR may lead to therapeutic approaches for TSHR-mediated hyperthyroidism caused by constitutively activating mutations or stimulating auto-antibodies associated with Graves' disease. Graves' disease is the leading cause of hyperthyroidism and is caused by autoantibodies that stimulate TSHR (TsAbs) causing thyroid growth and unregulated overproduction of thyroid hormones and existing treatments have liabilities (agranulocytosis). In addition, TSHRs are known to be expressed in multiple extrathyroidal tissues including bone, brain, kidney, testis, fat and cells of the immune system but the role of the TSHR in these tissues is not clear. Therefore, TSHR antagonists/inverse agonists could be used as probes of extrathyroidal TSHR function. Finally, TSHR inverse agonists, which are a subclass of antagonists that inhibit agonist-independent (or basal or constitutive) TSHR signaling, could be used to inhibit TSH-independent signaling in patients with recurrent or metastatic thyroid cancer who are receiving thyroid hormone to suppress TSH.
In collaboration between scientist from the NCGC and the NIDDK, a miniaturized HTRF high-throughput screen was developed. It's a cell based assay, where an anti cAMP antibody contains a fluorescent cryptate tag (excitation 337 nm; emission 620 nm) and the acceptor is cAMP-d2 (excitation 620 nm; emission 665 nm). When antibody and cAMP-d2 interact and are excited by a 337 nm light, a FRET occurs resulting in emission at 665 nm. The assay is competition between cAMP-d2 and cAMP (from the cell lysate). The homogeneous protocol allows for one step dispense after stimulation that is automation friendly. In order to confirm specificity of the compounds to the TSHR, a confirmatory assay was conducted on a similar family member, the Luteinizing Hormone (LH) receptor, transfected into a HEK 293 cell line, using an orthogonal detection technology to measure cAMP stimulation: antibody-based Homogeneous Time Resolved Fluorescence (HTRF).
NIH Chemical Genomics Center [NCGC]
NIH Molecular Libraries Probe Centers Network [MLPCN]
Assay Provider: Marvin Gershengorn, NIDDK
Homogeneous Time Resolved Fluorescence (HTRF) cAMP Assay. HEK 293 cells stably transfected with a vector containing the LH receptor and maintained under hygromycin selection were obtained from the laboratory of Dr. Marvin Gershengorn. Compounds were assayed using a HTRF cAMP detection kit (Cisbio) on the LH receptor transfected cell line. Briefly, 750 cells were plated in 2.5 ul/well of complete media (DMEM containing 10 % FCS, and 100 uM RO 20-1724) in 1536 well solid bottom white plates and 23 nl/well compound in DMSO solution or controls was added. Following 30 minute incubation at room temperature, 2.5 ul/well of labeled d2 cAMP and 2.5 ul/well of anti-cAMP antibody (both diluted 1:20 in lysis buffer) were added to each well using a flying reagent dispenser (Aurora Discovery, San Diego) . Plates were measured using the Envision plate reader (PerkinElmer, Boston, MA) with excitation at 330 nm and emissions of 615 nm and 660 nm.
% is set by controls: 0 for no effect and ±100 for the full control effect; potency is the fitted concentration of half-maximal effect.

Activity change, negative = inhibition, inactive:
CN(Cc1ccccc1Cl)C(=O)c1cc2ccccc2o1 0.84%, Cc1ccc(CNC(=O)c2ccccc2NS(=O)(=O)c2ccc(Cl)nc2)cc1 2.33%, Oc1ccc(Cl)cc1Cc1cc(Cl)ccc1O -1.19%, O=C(NNC(=O)c1n[nH]c(=O)c2ccccc12)c1ccc(Br)cc1 -1.4%, COc1ccc(Cl)cc1NC(=O)C1CCN(C(=O)C2CC(=O)N(c3ccc(C)cc3)C2)CC1 (stereo unspecified) 0.971%, Cc1ccc([N+](=O)[O-])cc1S(=O)(=O)Nc1ccc(-c2ccc(N3CCCC3)nn2)cc1 -0.453%, Cc1ccc(NC(=O)CCc2nnc3ccc(NCc4ccco4)nn23)nc1 0.344%, CCOC(=O)c1c(NC(=O)CN2C(=O)NC(C)(c3ccc(OC(F)F)cc3)C2=O)sc(C)c1C (stereo unspecified) 0.865%, COc1ccccc1C1CCN(c2cc(O)ccc2[N+](=O)[O-])CC1 1.21%, CCCNc1c(NS(=O)(=O)c2ccc(Br)cc2)c(=O)oc2ccccc12 -0.309%, O=C(NCC1CCCN(C(=O)c2cccc(C(F)(F)F)c2)C1)c1ccc(F)cc1 (stereo unspecified) 1.15%, Cc1c(Cl)sn(-c2ccc(Cl)cc2)c1=O -7.13%, Cc1ccc(-c2nnc(SCC(=O)NC3CCCC3)n2C)cc1 0.0355%, Cc1ccc(NC(=O)c2cccc(OCc3c(C)noc3C)c2)cc1S(=O)(=O)Nc1ccccc1Cl 2.36%, CC1CCc2c(sc(NC(=O)c3ccco3)c2C(=O)O)C1 (stereo unspecified) -0.775%, COc1cccc(CN(C)C(=O)c2ccc(OCC(=O)Nc3cccc(C(F)(F)F)c3)c(OC)c2)c1 -0.547%, Cc1cccc(CSCCNC(=O)c2ccc(N(C)S(=O)(=O)c3ccccc3)cc2)c1 -1.47%, O=C(NCCCCc1ccccc1)NC[C@@H]1CC[C@@H](Cc2ccc(-c3ccccc3)cc2)O1 -5.8%, COc1ccc(S(=O)(=O)N2CCOC23CCN(C(=O)c2ccc(Cl)cc2Cl)CC3)cc1 -0.906%, CC(C)C(C)NC(=O)COc1ccc(Sc2ccc(OCC(=O)NC(C)C(C)C)cc2)cc1 (stereo unspecified) -4.69%, O=C1CCCN1c1ccc(S(=O)(=O)Oc2ccc(Cl)cc2)cc1[N+](=O)[O-] -4.4%, COCCNC(=O)CN1C(=O)c2cccc3cccc1c23 2.12%, Cc1ccc(S(=O)(=O)N2CCCC(C(=O)NC3CCCC3)C2)cc1Cl (stereo unspecified) -0.0451%, Cc1nc(N2CCN(S(=O)(=O)c3ccccc3C#N)CC2)c2c(-c3cccs3)csc2n1 -2.15%, COc1ccc(-c2cc3c(=O)n(CC(=O)NCc4cccnc4)nc(C)n3n2)cc1 3.62%, COc1ccc(/C=N/n2c(C)nnc2C)c(OC)c1OC 0.838%, CCc1nnc(NC(=O)c2ccc(Cl)c(S(=O)(=O)N3CCc4ccccc43)c2)s1 1.21%, O=C(N/N=C/c1cccc(Oc2ccc([N+](=O)[O-])cc2[N+](=O)[O-])c1)c1cncc(Br)c1 -0.505%, CSc1nnc(C(C)(C)C)c(=O)n1/N=C/c1c(O)ccc2ccccc12 1.35%, CC(=O)Nc1ccc(NC(=O)C(C)OC(=O)c2ccccc2C(=O)c2ccc(Cl)c([N+](=O)[O-])c2)cc1 (stereo unspecified) -3.09%, CSc1cnn(Cc2ccccc2)c(=O)c1SCc1ccccc1 -0.923%, O=C(CSc1ccc(F)cc1)N1CCC(c2nc3ccccc3s2)CC1 -2.02%, CC(=O)N1c2ccc(S(=O)(=O)N3CCC(C(=O)NC4CCCCC4C)CC3)cc2CC1C (stereo unspecified) -0.56%, N#CC(C#N)=NNc1ccc([N+](=O)[O-])cc1 -0.806%, COc1ccc(OCC(=O)NC(=S)Nc2ccc(N3CCOCC3)c(Cl)c2)cc1 -2.68%, N#Cc1c(Cl)nsc1NC(=O)c1ccccc1 -2.2%, CNC(=S)n1cnc(N)n1 1.11%, O=C(Nc1nnc(C(F)(F)F)s1)c1ccc(Br)s1 -2.84%, O=C(O)c1ccc(NC2=C(Cl)C(=O)c3ccccc3C2=O)cc1 -5.33%, CC(C)C(c1nnnn1Cc1cccs1)N1CCN(c2ccccc2)CC1 (stereo unspecified) -1.99%, Clc1ccc(C2Nc3cccc4cccc(c34)N2)cc1 0.951%, O=C(NCCc1ccccc1)C(=O)NCC1OCCCN1S(=O)(=O)c1cc(F)ccc1F (stereo unspecified) -1.72%, CC1CC(C)CN(C(=O)c2ccc3c(=O)n(Cc4ccc5c(c4)OCO5)c(=S)[nH]c3c2)C1 (stereo unspecified) -0.366%, CC(NC(=O)c1ccc([N+](=O)[O-])o1)C1CC2CCC1C2 (stereo unspecified) 2.43%, CSc1nnc(NC(=O)c2nc(S(=O)(=O)Cc3ccccc3F)ncc2Cl)s1 -5.97%, O=C(NCCC1=CCCCC1)c1ccc2c(c1)N(Cc1ccccc1)C(=O)CS2 2.35%, Cc1ccc(OCc2cc(C(=O)NCC3COCCO3)no2)cc1C (stereo unspecified) -0.016%, COc1ccc(CNC(=O)Cn2nc(Cc3cccnc3)c3ccccc3c2=O)cc1 -0.39%, Cc1ccc(S(=O)(=O)N2CCCCC2)cc1NC(=O)Cn1ncc(Cl)c(Cl)c1=O -8.61%, Cc1ccc(C(=O)Nc2ccc(Br)c(C(F)(F)F)c2)cc1 -5.48%, O=C(Nc1nnc(S(=O)(=O)N2CCCCC2)s1)c1cccc(Br)c1 1.88%, Cc1ccc(NC(=S)NC(=O)c2ccc(F)cc2)cc1S(=O)(=O)Nc1cccc(Cl)c1 1.85%, Cc1ccc(NC(=S)c2nc3ccccc3s2)cc1 -0.0086%, COC(=O)c1sc(NC(=O)C(C)C)c(C(=O)OC)c1C 0.962%, S=c1[nH]nc(-c2ccccc2)n1C1C=CCCC1 (stereo unspecified) -1.23%, C=CCC1(CC=C)CCCN1C(=O)c1cc(COc2ccc(C)nc2)on1 -3.32%, O=C(Nc1ccncc1)c1ccc2c(c1)C(=O)N(C1CCCCC1)C2=O -3.31%, O=C1NC(=S)SC1=C1CCCCCC1 0.716%, CC(C)N(C(=O)Cn1c(-c2cccnc2)ccc(C#N)c1=O)C(C)C 1.41%, COc1ccc(-c2cc(C3CCN(c4cc(Cl)nc(N)n4)CC3)[nH]n2)cc1 -0.959%, CCOc1ccc(CCNC(=O)c2ccc3c(=O)[nH]c4c(C(=O)NC(C)C)sc(=S)n4c3c2)cc1 -0.782%, CC(C)C(NC(=O)Cc1ccccc1)C(=O)N1CCN(c2cccc(Cl)c2)CC1 (stereo unspecified) -1.58%, CCCCn1c(NC(=O)c2ccccc2Cl)c(C#N)c2nc3ccccc3nc21 0.264%, COc1cc(/C=C2\SC(=O)N(c3ccc(Cl)cc3)C2=O)cc([N+](=O)[O-])c1O 2.26%, CC(C)CC(=O)NC(NC(=S)Nc1sc2c(c1C#N)CCCC2)C(Cl)(Cl)Cl (stereo unspecified) -0.217%, CC[C@@H](C(=O)[C@@H](C)[C@@H](O)[C@H](C)CCc1ccc(C)c(O)c1C(=O)O)[C@H]1O[C@](CC)([C@H]2CC[C@](O)(CC)[C@H](C)O2)C[C@@H]1C -3.86%, CC1(C)C2CCC1(C)C(OC(=O)CCn1ccnc1)C2 (stereo unspecified) 1.99%, Cc1cc2nc(SCCOC(=O)Nc3ccc(Cl)cc3)nc(C)c2cc1C 0.935%, COc1ccc(CC(=O)Oc2cc(C)ccc2C)cc1 -0.764%, O=S(=O)(c1cccc(Br)c1)N1CCN(CCc2ccccc2)CC1 -0.571%, COc1cccc(O)c1CN1CCC(C(=O)Nc2ccc(Oc3cccnc3)cc2)CC1 -0.849%, CCSC1=NSC2=NC(=O)/C(=C\c3coc4ccccc4c3=O)C(=N)N12 0.953%, CS(=O)(=O)N(CCc1ccccc1)CC(=O)Nc1ccc(OCc2ccccc2)cc1 -3.93%, CCn1c(=S)sc2c(=O)n(CC(=O)Nc3ccccc3OC)c(C)nc21 0.2%, O=C1OC(CC(=O)N(Cc2nnc(-c3ccc(Cl)cc3)o2)C2CC2)c2ccccc21 (stereo unspecified) -0.702%, Cc1cccc2sc(NC(=O)C3CCN(S(=O)(=O)c4cc([N+](=O)[O-])ccc4Cl)CC3)nc12 -2.89%, O=S(=O)(Nc1cccc(-n2cnnn2)c1)c1ccccc1C(F)(F)F 3.27%, COc1cc(C(=O)N/N=C/c2cn(Cc3ccccc3)c3ccccc23)ccc1O -1.49%, Fc1cccc(Cl)c1CNCc1cccnc1 0.337%, CCOc1cc(/C=C2\SC(=NC)N(C)C2=O)c(Br)cc1OC(C)=O -1.47%, O=[N+]([O-])c1cc(Br)c(O)c(/C=N/Nc2nnnn2-c2cccc3ccccc23)c1 -0.719%, O=C(COc1ccc(Cl)cc1)Nc1nc(-c2cccs2)cs1 -1.27%, CCN(CC)C(=O)Cn1c(=O)n(-c2ccccc2)c(=O)c2sccc21 0.124%, O=[N+]([O-])c1cccc(S(=O)(=O)Nc2nc3ccccc3nc2Nc2cccc(S(=O)(=O)N3CCCCC3)c2)c1 -1.83%, COc1ccc(Cc2nc(C(=O)Nc3ccc(Cl)cc3)cs2)cc1 -1.91%, COc1ccc(NC(=O)CCNS(=O)(=O)c2ccc3c(c2)CC(C)N3C(C)=O)cc1 (stereo unspecified) 1.55%, S=c1sc2c(Cl)ncnc2n1-c1ccccc1 0.526%, COc1ccc(NC(=S)NC(=O)/C=C/c2ccco2)cc1 0.67%, NC(=O)CSc1oc(-c2ccco2)nc1S(=O)(=O)c1ccccc1 0.433%, COc1ccc(NS(=O)(=O)c2ccc3c(c2)Cc2ccccc2-3)cn1 1.94%, Cc1ccc(-c2cn3cc(C)ccc3n2)cc1 0.852%, Cc1ccc(NS(=O)(=O)c2cc(C(=O)Nc3cccc([N+](=O)[O-])c3)ccc2C)cc1 -4.12%, O=S(=O)(c1ccc(SCc2ccc(Cl)cc2)nc1)N1CCCC1 -7.02%, COc1ccccc1CNc1ncnc2sccc12 -2.06%, COc1ccc(OC)c(NC(=O)CSc2ncnc3c2cnn3-c2ccccc2Cl)c1 -8.87%, COC(=O)[C@H]1[C@H]2C[C@@H]3c4[nH]c5cc(OC)ccc5c4CCN3C[C@H]2C[C@@H](OC(=O)/C=C/c2cc(OC)c(OC)c(OC)c2)[C@@H]1OC 0.214%, CCOC(=O)C1=C(C)Nc2ccccc2N=C1NC(=O)c1cc(C)on1 1.59%, COc1cc2ccccc2cc1C(=O)N1CCCC1 3.1%, COc1ccc(/C=C/C(=O)N2CCN(C)CC2)cc1OC 2.37%

Potency, active:
CCC1CCCCN1S(=O)(=O)c1ccc(NC(=O)c2nc(S(C)(=O)=O)ncc2Cl)cc1 (stereo unspecified) 30.1 µM, O=[N+]([O-])c1c(Nc2cccc(O)c2)cc(Cl)c2nonc12 30.1 µM

— PubChem BioAssay AID602293 (National Center for Advancing Translational Sciences (NCATS), 2012)
